Source: PubChem BioAssay AID1476 (National Center for Advancing Translational Sciences (NCATS), 2009)
Hit rate of the full screen: of about 200,000 compounds, about 4,500 (2.2%) were called active. This list was built around the results that the source calls inconclusive (neither active nor inactive); the mix of calls is not that of the screen. The call rests on the fitted dose curve; in most records, active means well fitted inhibition curve with a large enough effect; inconclusive means small, poorly fitted or top-dose-only effect, or effect the other way; inactive means flat fitted curve, though single readings scatter. A potency beside an inconclusive call is a rough fit, not a confirmed value.

These molecules were tested against Cruzipain (Trypanosoma cruzi) (UniProt P25779) (assay: qHTS Assay for Promiscuous and Specific Inhibitors of Cruzain (without detergent)). Details: purified cruzain, Z-FR-AMC fluorescence, no detergent.
Method in brief: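 Detergent-free condition (0.00005% Triton X-100) in acetate buffer pH 5.5 with DTT. 1.5 nM enzyme and compound were pre-mixed 15 min, then 2 uM Z-FR-AMC substrate added; reaction progress from fluorescence change between first and third reads (60 s).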
Further: nearly all actives have a fitted effect of over 40% in size.
Potency means the concentration at half of the fitted maximal effect; tags describe the fitted curve by direction and shape.
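Wherever max response, negative = inhibition is given: plate controls were enzyme without inhibitor for no effect and buffer without enzyme for full effect.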

UniProt P25779, sequence (P25779 whole entry, looked up): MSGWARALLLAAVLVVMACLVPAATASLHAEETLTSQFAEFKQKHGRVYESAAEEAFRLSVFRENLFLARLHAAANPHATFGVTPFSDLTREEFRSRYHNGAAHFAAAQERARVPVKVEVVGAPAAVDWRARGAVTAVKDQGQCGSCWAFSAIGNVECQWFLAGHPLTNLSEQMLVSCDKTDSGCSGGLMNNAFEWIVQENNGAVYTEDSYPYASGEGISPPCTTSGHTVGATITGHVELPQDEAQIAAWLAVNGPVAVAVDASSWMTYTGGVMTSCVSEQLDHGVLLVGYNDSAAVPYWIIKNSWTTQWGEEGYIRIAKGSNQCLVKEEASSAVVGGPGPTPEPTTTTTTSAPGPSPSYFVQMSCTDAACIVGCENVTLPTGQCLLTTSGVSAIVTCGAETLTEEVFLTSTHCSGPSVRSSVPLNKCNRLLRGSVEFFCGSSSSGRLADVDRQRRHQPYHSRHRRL

SMILES	Potency	max response, negative = inhibition
O=C(NCc1ccc(Cl)cc1)c1cc(S(=O)(=O)N2CCCCC2)c[nH]1	active: 20 µM	–
CCN1CCSc2ccc(C(=O)NC(C)c3ccccc3)cc21 (configuration not stated)	–	inactive: -4.6%
CN(C)CCCSc1ccccc1NC(=O)/C=C\c1ccccc1	–	inactive: 3.69%
Cc1nn(CCCC(=O)NCc2ccc(F)cc2)c(=O)c2c1sc1ccccc12	inconclusive: 3.98 µM [inhibitor, single point]	–
C[C@@H]1CC2(OC(O)[C@]3(C)O[C@H]23)O[C@H]2C[C@@]3(C)[C@@H]4CC[C@H]5C(C)(C)C(O[C@@H]6OC[C@@H](O)[C@H](O)[C@H]6O)CC[C@@]56C[C@@]46CC[C@]3(C)[C@@H]12 (some centres not stated)	inconclusive: 10 µM [activator, full curve]	–
Cc1ccc(-n2ncc(C(=O)N3CCN(c4cccc(C)c4)C(C)C3)c2C2CCN(C(=O)OC(C)(C)C)CC2)cc1 (configuration not stated)	inconclusive: 3.98 µM [activator, single point]	–
CCOc1ccc(NC(=O)CNC(=O)c2cn(-c3ccccc3OC)c(=O)c3ccccc23)cc1	inconclusive: 39.8 µM [activator, single point]	–
CCN(CC)S(=O)(=O)c1ccc(NC(=O)COc2nc3ccccc3nc2N2CCOCC2)cc1	inconclusive: 39.8 µM [activator, single point]	–
Cc1ccc(C2(C)NC(=O)N(CC(=O)NC(=O)NCCC(C)C)C2=O)cc1 (configuration not stated)	inconclusive: 31.6 µM [activator, single point]	–
O=C(CNC(=S)NC(=O)c1cccc([N+](=O)[O-])c1)c1ccccc1	inconclusive: 39.8 µM [inhibitor, single point]	–
O=c1c2ccccc2nc(/C=C/c2cccc3ccccc23)n1-c1ccc(Cl)cc1	inconclusive: 39.8 µM [inhibitor, single point]	–
Cc1oc2ncnc(N3CCCCC3)c2c1C(=O)NCC1CCN(Cc2cccc(F)c2)CC1	–	inactive: -3.07%
Cc1ccc(-n2ncc3c(=O)n(CC(=O)NCc4ccco4)cnc32)cc1C	inconclusive: 39.8 µM [inhibitor, single point]	–
O=C1C2C3C=CC(C4CC34)C2C(=O)N1/N=C/c1ccc(-c2ccc(F)cc2[N+](=O)[O-])o1 (configuration not stated)	inconclusive: 31.6 µM [inhibitor, single point]	–
COc1ccc2nc(NC(=O)c3ccc(NS(=O)(=O)c4cccs4)cc3)sc2c1	inconclusive: 39.8 µM [inhibitor, single point]	–
Clc1cccc(Cl)c1CO/N=C/c1c(-c2ccccc2)nc2n1CCS2	inconclusive: 39.8 µM [inhibitor, single point]	–
COc1cc(NC(=O)CN2C(=O)c3ccccc3Sc3ccc(C(=O)N4CCCC4)cc32)cc(OC)c1	inconclusive: 39.8 µM [activator, single point]	–
COc1ccc(OC)c(CCNC(=O)c2ccc3c(c2)c(C)c(C)n3Cc2ccccc2)c1	inconclusive: 25.1 µM [inhibitor, single point]	–
CC(C)c1cc(Br)ccc1OCCCN1C(=O)NC(C)(C)C1=O	inconclusive: 39.8 µM [activator, single point]	–
COc1ccc(-c2nc(CSc3nncn4c3cc3oc(C)cc34)c(C)o2)cc1	–	inactive: 1.34%
O=C(Nc1ccc(C(=O)OCc2cc(=O)n3c4c(sc3n2)CCCC4)cc1)c1ccc(F)cc1	–	inactive: 4.76%

SMILES	Potency	max response, negative = inhibition
Cc1cc(NC(=O)CSc2nnc(NC(=O)C3CC(=O)N(c4ccccc4)C3)s2)no1 (configuration not stated)	inconclusive: 31.6 µM [inhibitor, single point]	–
C[C@@H](C(=O)N[C@@H](CO)Cc1ccccc1)[C@H]1C[C@]1(C)[C@H](NC(=O)OCc1ccccc1)c1ccccc1	inconclusive: 39.8 µM [activator, single point]	–
Cc1c(Cl)cccc1NC(=O)Cn1c(=O)n(Cc2ccco2)c(=O)c2sc3ccccc3c21	–	inactive: 28.5%
COc1ccc(C(=O)NCC(c2cccnc2)N2CCN(c3ccccc3)CC2)cc1 (configuration not stated)	inconclusive: 39.8 µM [activator, single point]	–
COc1cccc(Cn2c(=O)cc(C)c3c(C)nn(C)c32)c1	inconclusive: 31.6 µM [activator, single point]	–
CS(=O)(=O)N1CCC[C@@]2(CCN(C(c3ccccc3)c3ccccc3)C2)C1	–	inactive: 6.02%
CCC1CN(S(=O)(=O)c2cc(-c3cc(C)no3)ccc2C)c2cc(Cl)ccc2O1 (configuration not stated)	inconclusive: 31.6 µM [inhibitor, single point]	–
COc1cc(NS(=O)(=O)c2ccc(NC(=O)c3cccc(F)c3)cc2)nc(OC)n1	–	inactive: -6.69%
CC1(C)Cc2c(C#N)c(OCC(=O)c3ccc(Cl)cc3)nc(-c3ccoc3)c2CO1	inconclusive: 39.8 µM [inhibitor, single point]	–
Cc1ccccc1NC(=O)c1sc2nc3c(c(-c4ccco4)c2c1N)CCCC3	inconclusive: 31.6 µM [inhibitor, single point]	–
Fc1ccc2c(c1)C1C=CCC1C(c1cc3c(cc1Br)OCO3)N2 (configuration not stated)	inconclusive: 39.8 µM [inhibitor, single point]	–
O=c1/c(=C\c2cccn2-c2ccccc2)sc2nc3ccccc3n12	inconclusive: 12.6 µM [inhibitor, partial curve, poor fit]	–
Cc1ccccc1NC(=O)CSc1cn(CC(=O)N2CCCCCC2)c2ccccc12	–	inactive: -16.2%
CCOC(=O)c1c(NC(=O)c2nc(SCC)ncc2Cl)sc2c1CCCC2	–	inactive: 11.1%
CC(=O)C1=C(O)[C@@H]2[C@@H]3c4c[nH]c5cccc(c45)C[C@@H]3C(C)(C)N2C1=O	inconclusive: 39.8 µM [activator, single point]	–
COc1ccccc1NC(=S)NCc1ccc2c(c1)OCO2	–	inactive: 0.709%
CCOc1cccc(C2c3[nH]c4ccccc4c3CCN2C(=O)CSc2ccccc2)c1 (configuration not stated)	inconclusive: 39.8 µM [inhibitor, single point]	–
CCCCCC(=O)Nc1ccc2oc(-c3ccncc3)nc2c1	inconclusive: 31.6 µM [activator, single point]	–
COc1ccc(CNC(=O)Cc2ccc(NC(=O)N3CCSc4ncccc43)cc2)cc1OC	–	inactive: -3.18%
COC(=O)/C(=N/Nc1ccc(C)cc1)N1CCCc2ccccc21	inconclusive: 3.98 µM [activator, single point]	–
CCn1nc(C(=O)OCC(=O)N2CCc3ccccc32)c2ccccc2c1=O	inconclusive: 39.8 µM [activator, single point]	–

SMILES	Potency	max response, negative = inhibition
O=c1ccn(-c2cccc(C(F)(F)F)c2)nc1-c1ccn(-c2cccc(Cl)c2)n1	inconclusive: 39.8 µM [activator, single point]	–
COCCOC(=O)c1c(N)n(Cc2ccc(OC)cc2)c2nc3ccccc3nc12	inconclusive: 31.6 µM [activator, single point]	–
COc1ccc(OC)c(/C=N/NC(=O)CC2C(=O)NN=C2C)c1 (configuration not stated)	active: 31.6 µM	–
COc1cc2oc(=O)cc(-c3ccc(-c4cccc(N)c4)cc3)c2c(OC)c1OC	inconclusive: 44.7 µM [activator, single point]	–
COC(=O)c1sccc1NC(=O)c1c(C)c(-c2cccc(Cl)c2)nc2ccccc12	inconclusive: 31.6 µM [inhibitor, single point]	–
O=C1C(Cl)=C(N2CCOCC2)C(=O)N1c1ccccc1Cl	–	inactive: -26%
Cc1ccc(C(=O)c2cn(Cc3ccccc3)c3nc(C)ccc3c2=O)cc1	inconclusive: 39.8 µM [inhibitor, single point]	–
Cc1nc(N2CCCC2)c2c(C(=O)N3CCN(c4cc(Cl)ccc4C)CC3)c(C)oc2n1	inconclusive: 31.6 µM [activator, single point]	–
CC(C)CNC(=O)c1cc(-c2ccc(Br)cc2)on1	inconclusive: 39.8 µM [inhibitor, single point]	–
O=C(CCCCCn1c(=S)[nH]c2cc3c(cc2c1=O)OCO3)N1CCN(Cc2ccccc2)CC1	inconclusive: 31.6 µM [inhibitor, single point]	–
COc1ccccc1NS(=O)(=O)c1cc(NC(=O)c2ccc3c(c2)OCCO3)ccc1C	inconclusive: 31.6 µM [inhibitor, single point]	–
COc1ccc(N2CCN(Cc3cc(=O)oc4cc(C)c(Cl)cc34)CC2)cc1	inconclusive: 15.8 µM [inhibitor, partial curve, poor fit]	–
CN1CCN(S(=O)(=O)c2cccc(C(=O)Nc3sc4c(c3-c3nc5ccccc5[nH]3)CCCC4)c2)CC1	active: 15.8 µM	–
CC(=O)c1ccc(NCC(=O)N2CCN(c3ccccc3)CC2)cc1	inconclusive: 25.1 µM [inhibitor, single point]	–
CCCCC1=CC2=C(c3ccco3)C(=O)C(C)(OC(=O)c3cccs3)C(=O)C2=CO1 (configuration not stated)	–	inactive: -7.91%
Oc1cccc(Nc2nc(NCC3CCCO3)c3ccccc3n2)c1 (configuration not stated)	active: 12.6 µM	–
CCCCN(C)C(=O)c1ccc2c(c1)N(Cc1cccc(F)c1)C(=O)c1ccccc1S2	–	inactive: 11.7%
O=C(Nc1nccs1)c1cc(-c2ccco2)nc2ccccc12	inconclusive: 25.1 µM [inhibitor, single point]	–
COc1ccc(NC(=O)c2oc3ccccc3c2NC(=O)C2CCCCC2)c(OC)c1	–	inactive: 4.66%
Nc1c(C(=O)Nc2ccccc2)sc2nc3c(cc12)CN(Cc1ccccc1)CC3	inconclusive: 31.6 µM [inhibitor, single point]	–
